These are yes or no findings as the source states them, for the method shown. In cells and extracts the contact can be indirect. Some results given as binding are weak or reduced against the parent protein; the word gives no strength. For part of these data: Tags and fused reporters may be left off the sequences shown.

Sequences of proteins named here, by UniProt entry; tags and fusion partners are left off. A change or cut given only in a name is not applied to a line headed by its entry.
UniProt Q93008: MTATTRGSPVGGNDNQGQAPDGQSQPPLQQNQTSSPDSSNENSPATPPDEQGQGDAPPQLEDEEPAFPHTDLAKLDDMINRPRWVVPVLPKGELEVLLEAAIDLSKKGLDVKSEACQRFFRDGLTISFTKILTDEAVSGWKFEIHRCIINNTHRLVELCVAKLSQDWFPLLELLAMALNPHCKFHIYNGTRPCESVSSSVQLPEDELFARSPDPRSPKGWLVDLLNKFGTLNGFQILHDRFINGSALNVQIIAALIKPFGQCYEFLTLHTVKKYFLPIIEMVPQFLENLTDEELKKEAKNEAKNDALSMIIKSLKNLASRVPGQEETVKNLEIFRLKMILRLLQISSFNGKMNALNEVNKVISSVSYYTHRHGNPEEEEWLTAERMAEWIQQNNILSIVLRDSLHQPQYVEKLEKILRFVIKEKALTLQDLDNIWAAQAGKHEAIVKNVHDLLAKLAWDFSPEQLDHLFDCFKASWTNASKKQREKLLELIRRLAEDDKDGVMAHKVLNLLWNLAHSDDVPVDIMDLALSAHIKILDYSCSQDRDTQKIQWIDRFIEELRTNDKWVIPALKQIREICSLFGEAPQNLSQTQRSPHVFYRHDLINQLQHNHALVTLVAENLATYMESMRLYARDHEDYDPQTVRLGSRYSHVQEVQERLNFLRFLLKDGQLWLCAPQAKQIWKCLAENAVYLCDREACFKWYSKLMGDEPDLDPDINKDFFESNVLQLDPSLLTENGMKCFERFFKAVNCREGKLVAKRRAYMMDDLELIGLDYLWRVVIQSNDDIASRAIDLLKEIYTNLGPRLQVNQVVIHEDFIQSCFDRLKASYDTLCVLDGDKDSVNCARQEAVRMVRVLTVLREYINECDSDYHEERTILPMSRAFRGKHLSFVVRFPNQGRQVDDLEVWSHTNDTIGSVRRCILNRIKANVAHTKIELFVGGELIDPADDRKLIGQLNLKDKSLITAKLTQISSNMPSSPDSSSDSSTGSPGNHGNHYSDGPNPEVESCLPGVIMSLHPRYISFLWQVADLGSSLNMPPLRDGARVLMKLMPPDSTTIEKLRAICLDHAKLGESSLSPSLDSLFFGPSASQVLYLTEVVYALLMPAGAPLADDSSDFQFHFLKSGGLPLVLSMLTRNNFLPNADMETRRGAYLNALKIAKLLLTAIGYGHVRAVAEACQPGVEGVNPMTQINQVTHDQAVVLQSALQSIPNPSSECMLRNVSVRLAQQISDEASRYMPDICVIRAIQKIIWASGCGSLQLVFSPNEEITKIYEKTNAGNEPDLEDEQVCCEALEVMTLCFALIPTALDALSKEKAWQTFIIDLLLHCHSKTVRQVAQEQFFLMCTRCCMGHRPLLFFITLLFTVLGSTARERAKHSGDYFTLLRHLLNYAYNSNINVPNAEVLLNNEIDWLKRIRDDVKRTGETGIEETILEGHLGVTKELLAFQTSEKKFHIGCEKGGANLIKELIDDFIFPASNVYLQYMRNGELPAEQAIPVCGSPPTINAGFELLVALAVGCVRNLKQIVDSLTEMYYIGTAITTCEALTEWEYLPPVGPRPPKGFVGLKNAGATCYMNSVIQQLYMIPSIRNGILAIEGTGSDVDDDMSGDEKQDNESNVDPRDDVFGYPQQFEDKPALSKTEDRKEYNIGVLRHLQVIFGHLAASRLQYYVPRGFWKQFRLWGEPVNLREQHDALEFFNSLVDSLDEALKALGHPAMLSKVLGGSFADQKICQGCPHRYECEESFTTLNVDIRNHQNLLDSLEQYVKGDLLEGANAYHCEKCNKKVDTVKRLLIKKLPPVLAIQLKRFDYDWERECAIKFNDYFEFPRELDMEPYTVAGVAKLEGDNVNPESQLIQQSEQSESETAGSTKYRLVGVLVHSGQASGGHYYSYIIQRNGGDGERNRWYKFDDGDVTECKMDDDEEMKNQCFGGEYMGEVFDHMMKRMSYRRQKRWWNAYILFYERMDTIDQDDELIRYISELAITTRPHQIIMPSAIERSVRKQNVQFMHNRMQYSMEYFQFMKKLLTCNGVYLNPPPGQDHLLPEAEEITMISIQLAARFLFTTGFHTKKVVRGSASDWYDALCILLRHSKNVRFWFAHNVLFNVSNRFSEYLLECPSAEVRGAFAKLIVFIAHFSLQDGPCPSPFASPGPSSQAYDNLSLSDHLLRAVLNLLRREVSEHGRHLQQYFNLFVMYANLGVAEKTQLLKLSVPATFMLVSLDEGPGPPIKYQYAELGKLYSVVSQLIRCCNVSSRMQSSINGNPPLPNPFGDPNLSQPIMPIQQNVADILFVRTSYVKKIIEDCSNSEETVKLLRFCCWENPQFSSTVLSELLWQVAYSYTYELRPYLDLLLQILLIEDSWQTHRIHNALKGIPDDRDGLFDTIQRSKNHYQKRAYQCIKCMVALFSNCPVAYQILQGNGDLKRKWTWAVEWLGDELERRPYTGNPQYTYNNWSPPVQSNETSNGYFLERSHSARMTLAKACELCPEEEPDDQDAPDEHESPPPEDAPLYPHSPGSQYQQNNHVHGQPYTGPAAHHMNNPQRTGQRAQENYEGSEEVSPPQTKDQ
UniProt P61586: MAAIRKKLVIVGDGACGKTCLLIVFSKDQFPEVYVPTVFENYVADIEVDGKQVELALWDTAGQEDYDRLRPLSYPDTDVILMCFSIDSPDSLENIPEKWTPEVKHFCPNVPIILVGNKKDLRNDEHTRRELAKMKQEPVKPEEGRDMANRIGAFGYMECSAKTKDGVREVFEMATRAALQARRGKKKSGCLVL

Test [1] has as its target Ubiquitin carboxyl-terminal hydrolase 9X (USP9X) (human) (UniProt Q93008). Kind of test: co-IP; lysates of HEK293T cells expressing WT-RHOA and/or USP9X (USP33 as comparison); Flag-M2 agarose; 0.3% Nonidet P40 buffer (50 mM Tris-HCl, 150 mM NaCl, pH 7.5); Western blot. On the technique in general: A western blot detects proteins with antibodies after separation by electrophoresis.

The target of test [2] is T1, USP33 (human) (UniProt Q8TEY7).
T1 sequence: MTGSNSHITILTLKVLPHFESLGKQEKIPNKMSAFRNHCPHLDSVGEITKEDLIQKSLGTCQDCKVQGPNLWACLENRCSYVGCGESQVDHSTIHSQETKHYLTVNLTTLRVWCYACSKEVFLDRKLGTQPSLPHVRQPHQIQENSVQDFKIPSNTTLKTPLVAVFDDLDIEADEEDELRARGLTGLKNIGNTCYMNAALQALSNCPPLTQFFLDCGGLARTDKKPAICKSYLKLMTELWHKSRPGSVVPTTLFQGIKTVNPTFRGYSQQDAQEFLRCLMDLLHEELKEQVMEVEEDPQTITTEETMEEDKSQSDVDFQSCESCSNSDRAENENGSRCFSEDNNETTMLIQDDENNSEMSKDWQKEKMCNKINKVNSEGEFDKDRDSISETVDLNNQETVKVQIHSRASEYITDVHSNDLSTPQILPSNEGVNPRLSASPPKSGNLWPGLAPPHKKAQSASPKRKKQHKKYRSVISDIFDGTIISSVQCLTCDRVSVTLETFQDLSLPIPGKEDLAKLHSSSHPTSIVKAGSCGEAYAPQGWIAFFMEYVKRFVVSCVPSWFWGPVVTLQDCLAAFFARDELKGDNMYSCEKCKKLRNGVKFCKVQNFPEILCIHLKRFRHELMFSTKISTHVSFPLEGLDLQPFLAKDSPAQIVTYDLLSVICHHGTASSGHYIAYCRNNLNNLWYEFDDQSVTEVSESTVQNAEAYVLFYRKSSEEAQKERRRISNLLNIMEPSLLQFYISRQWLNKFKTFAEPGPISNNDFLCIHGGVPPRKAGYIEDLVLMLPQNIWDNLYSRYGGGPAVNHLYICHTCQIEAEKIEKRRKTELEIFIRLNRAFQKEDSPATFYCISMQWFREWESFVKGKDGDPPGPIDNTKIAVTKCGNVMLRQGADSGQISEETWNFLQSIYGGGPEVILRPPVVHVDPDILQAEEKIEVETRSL
Described as above.

The target of test [3] is RHOA K162 lactylated (site-specific lactylation system, Flag-RHOA K162TAG) (human) (UniProt P61586). Kind of test: co-IP; lysates of HEK293T cells expressing WT-RHOA, K162La or K162R and/or KCTD13; Flag-M2 agarose, 3 h at 4 C; 0.3% Nonidet P40 buffer (50 mM Tris-HCl, 150 mM NaCl, pH 7.5); Western blot.
The target of test [4] is Flag-RHOA (wild type) (human) (UniProt P61586). The description is as above.
Test [5] has as its target RHOA K162R mutant (human) (UniProt P61586). Described as above.
Test [6] concerns the target RHOA K118 lactylated (site-specific lactylation system, Flag-RHOA K118TAG) (human) (UniProt P61586). Kind of test: co-IP; ROCK2-RBD-HA co-expressed with WT, lactylated or mutant RHOA in HEK293T; lysis in Mg2+ lysis/wash buffer; RHOA precipitated with Flag-M2 agarose; bound RBD detected by immunoblotting.

“WT-RHOA (co-expressed with USP9X or USP33) (from UniProt P61586 1-193)”: the binding entry was “binds” in test [1] and “no binding” in test [2].

B1: BTB/POZ domain-containing protein (KCTD13) (protein, UniProt Q8WZ19 1-329)
chain: MSAEASGPAAAAAPSLEAPKPSGLEPGPAAYGLKPLTPNSKYVKLNVGGSLHYTTLRTLTGQDTMLKAMFSGRVEVLTDAGGWVLIDRSGRHFGTILNYLRDGSVPLPESTRELGELLGEARYYLVQGLIEDCQLALQQKRETLSPLCLIPMVTSPREEQQLLASTSKPVVKLLHNRSNNKYSYTSTSDDNLLKNIELFDKLALRFHGRLLFLKDVLGDEICCWSFYGQGRKIAEVCCTSIVYATEKKQTKVEFPEARIFEETLNILIYETPRGPDPALLEATGGAAGAGGAGRGEDEENREHRVRRIHVRRHITHDERPHGQQIVFKD
Regarding B1, the binding result in test [3], in test [4] and in test [5] was “binds” each time.

B2: ROCK2-RBD-HA (RHOA-binding domain of human ROCK2, amino acids 979 to 1047, fused to HA-tag) (domain or fragment, UniProt O75116 979-1047)
chain: TSDVANLANEKEELNNKLKDVQEQLSRLKDEEISAAAIKAQFEKQLLTERTLKTQAVNKLAEIMNRKEP
B2: the binding entry in test [6] is “binds”.

The values above are taken from PMC12750741.
